The values below come from publication PMC4336329 (PLoS ONE, 2015).

Screen size: about 310,000 compounds; about 2,200 (0.71%) showed an effect of 50% or more. Effects have a minus sign here. This is one part of the list.

human ether-à-go-go-related gene (hERG) potassium channel, sequence (Q12809 whole entry, looked up): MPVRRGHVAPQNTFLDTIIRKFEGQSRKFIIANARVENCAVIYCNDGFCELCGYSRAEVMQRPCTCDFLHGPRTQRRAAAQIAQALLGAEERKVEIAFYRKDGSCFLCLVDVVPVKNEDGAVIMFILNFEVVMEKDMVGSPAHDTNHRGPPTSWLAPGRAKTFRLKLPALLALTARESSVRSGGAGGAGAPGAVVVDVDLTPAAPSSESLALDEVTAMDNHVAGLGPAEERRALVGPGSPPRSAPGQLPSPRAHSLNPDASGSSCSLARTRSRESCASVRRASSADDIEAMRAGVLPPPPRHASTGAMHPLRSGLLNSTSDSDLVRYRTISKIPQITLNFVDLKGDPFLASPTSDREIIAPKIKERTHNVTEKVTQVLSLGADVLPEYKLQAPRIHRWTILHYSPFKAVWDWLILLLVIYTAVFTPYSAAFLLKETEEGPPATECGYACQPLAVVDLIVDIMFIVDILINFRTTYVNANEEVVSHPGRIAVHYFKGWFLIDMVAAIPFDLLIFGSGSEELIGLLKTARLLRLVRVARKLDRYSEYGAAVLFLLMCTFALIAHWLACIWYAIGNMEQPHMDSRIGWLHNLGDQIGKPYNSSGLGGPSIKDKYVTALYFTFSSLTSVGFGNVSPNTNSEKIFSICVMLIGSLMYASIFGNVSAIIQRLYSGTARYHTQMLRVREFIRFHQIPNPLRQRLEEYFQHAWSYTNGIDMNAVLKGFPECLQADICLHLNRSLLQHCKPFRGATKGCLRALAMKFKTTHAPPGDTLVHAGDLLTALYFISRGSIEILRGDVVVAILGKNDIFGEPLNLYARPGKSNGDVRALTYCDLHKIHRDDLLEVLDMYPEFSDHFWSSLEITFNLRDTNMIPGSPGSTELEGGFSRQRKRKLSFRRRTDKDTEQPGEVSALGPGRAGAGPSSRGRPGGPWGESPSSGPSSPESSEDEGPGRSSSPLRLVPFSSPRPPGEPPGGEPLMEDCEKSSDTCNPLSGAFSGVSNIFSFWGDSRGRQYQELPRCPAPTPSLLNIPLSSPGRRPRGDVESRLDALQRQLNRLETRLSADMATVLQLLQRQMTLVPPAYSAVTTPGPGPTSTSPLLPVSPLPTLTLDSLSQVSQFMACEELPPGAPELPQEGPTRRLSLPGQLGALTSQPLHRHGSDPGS

This test has as its target human ether-à-go-go-related gene (hERG) potassium channel (human, UniProt Q12809). Description: primary screen, population patch clamp on CHO cells stably expressing hERG.
Consider `CC(=O)N1CCN(C(=O)c2ccco2)CC1`, for which the “hERG current change (%, negative = inhibition) at 1uM” value was 24.9%.
As for `COc1ccc(-c2nc(-c3cccc(C)c3)[nH]c(=O)c2C#N)cc1`, the “hERG current change (%, negative = inhibition) at 1uM” value amounted to 2.95%.
Under `CS(=O)(=O)N(CCc1ccccc1)CC(=O)N1CCCCC1` stands 2.81%; under `COc1ccc(S(=O)(=O)N2CCCCC2)cc1NC(=O)C1CCCO1` (stereo not shown), 2.94%; under `CSc1cccc(NC(=O)CN(C)S(=O)(=O)c2ccccc2)c1`, 14.7%.
On to `O=C(CNC(=O)c1ccco1)N/N=C/c1ccc(C(=O)O)cc1`, for which the “hERG current change (%, negative = inhibition) at 1uM” value is on record as 10.7%.
The result for `COc1cccc(/C=C/C(=O)c2ccc[nH]2)c1` reads 11.1%; that for `CCC(c1nnnn1Cc1cccs1)N1CCN(C(=O)c2ccco2)CC1` (stereo not shown), -14.1%.
`CCOc1ccc(NC(=O)CSc2nncn2C)cc1`: the “hERG current change (%, negative = inhibition) at 1uM” value is recorded as 15.1%.
As for `Cc1ccc(Nc2nc(N3CCN(C)CC3)nc(N)c2[N+](=O)[O-])cc1C`, the “hERG current change (%, negative = inhibition) at 1uM” value is listed as -2.03%.
For `CCN(CC(=O)NCc1cccs1)C(=O)c1ccc(NS(=O)(=O)c2cccc([N+](=O)[O-])c2)cc1`, the “hERG current change (%, negative = inhibition) at 1uM” value is -0.0892%.
`Cn1c(CNS(=O)(=O)c2ccc(Cl)cc2)n[nH]c1=S`: the “hERG current change (%, negative = inhibition) at 1uM” value is 15.3%.
As for `COC(=O)c1cc2c(ccn2C)n1C`, the “hERG current change (%, negative = inhibition) at 1uM” value turned out to be 6.95%.
For `CN(Cc1ccc(-n2cccn2)cc1)Cc1nc(-c2cnccn2)no1`, the “hERG current change (%, negative = inhibition) at 1uM” value was -4.67%.
With `COc1cccc(S(=O)(=O)Nc2cccnc2)c1`, the “hERG current change (%, negative = inhibition) at 1uM” value stood at 14.3%.
Consider `CN(C)CCN(C(=O)C1CCN(S(=O)(=O)c2cccs2)CC1)c1nc2ccc(F)cc2s1.Cl`, for which the “hERG current change (%, negative = inhibition) at 1uM” value is 7.56%.
As for `Cc1ccc(OCCCC(=O)Nc2ccc3c(c2)OCCO3)cc1`, the “hERG current change (%, negative = inhibition) at 1uM” value was 4.94%.
Under `O=S(=O)(/C=C/c1ccccc1)Nc1ccc2c(c1)OCO2` stands -3.58%; under `CCCCC(=O)Nc1ccc(C(=O)NCc2ccncc2)cc1`, 13.6%.
For `CCCOc1ccc(OC(=O)c2ccc(Br)o2)cc1`, the “hERG current change (%, negative = inhibition) at 1uM” value turned out to be 10.3%.
With `CCCCC(=O)N/N=C/c1c(O)n(C2CC2)c(=S)[nH]c1=O`, the “hERG current change (%, negative = inhibition) at 1uM” value was found to be 4.87%.
On to `O=C(COC(=O)CCSc1ccc(Cl)cc1)NCc1ccccc1`, for which the “hERG current change (%, negative = inhibition) at 1uM” value is listed as 10.7%.
For `COc1ccccc1CNCc1cc(Br)ccc1OC.O=C(O)C(=O)O`, the “hERG current change (%, negative = inhibition) at 1uM” value is listed as 1.94%.
In the case of `Cc1ccc(CNC(=O)CN2C(=O)NC3(CC(C)CC(C)(C)C3)C2=O)cc1` (stereo not shown), the “hERG current change (%, negative = inhibition) at 1uM” value amounted to 2.6%.
As to `COc1ccc(CCNC(=O)c2ccc3c(c2)N(Cc2ccccc2)CCS3)cc1OC`, the “hERG current change (%, negative = inhibition) at 1uM” value is reported as 19.7%.
For `CC1CCCN(S(=O)(=O)c2ccc(-c3ccc(=O)[nH]n3)o2)C1` (stereo not shown), the “hERG current change (%, negative = inhibition) at 1uM” value is 4.45%.
With `CCOc1cc(NC(=S)Nc2cccc(OC)c2)c(OCC)cc1NC(=O)C(C)C`, the “hERG current change (%, negative = inhibition) at 1uM” value came out at 10.3%.
Turning to `O=C(COc1cccc(Cl)c1)NCC(c1cccs1)N1CCOCC1` (stereo not shown), the “hERG current change (%, negative = inhibition) at 1uM” value was found to be 10.8%.
The result for `Cc1ccccc1CC1(CO)CCCN(Cc2c(C)nn(C)c2Cl)C1` (stereo not shown) reads -13.8%; that for `CCCCCCCCCCOC(=O)C[N+](C)(C)C/C=C(/C)Cl.[Br-]`, -6.77%; that for `Cc1ccc2[nH]cc(S(=O)(=O)c3ccc(F)cc3)c(=O)c2c1`, 9.95%.
The result for `O=C(O)c1ccc(/C=C/c2nc3sc4c(c3c(=O)[nH]2)CCC4)cc1` reads 9.67%; that for `CC(C)CNC(=O)c1ccccc1-c1ccccc1C(=O)O`, 11.7%.
For `CC1(C)CC(NS(=O)(=O)OCC(Cl)(Cl)Cl)c2cc(C#N)ccc2O1` (stereo not shown), the “hERG current change (%, negative = inhibition) at 1uM” value came to 17.6%.
On to `COc1ccc(S(=O)(=O)NC(C(=O)NCCc2ccccn2)C(C)C)cc1` (stereo not shown), for which the “hERG current change (%, negative = inhibition) at 1uM” value came out at 2.77%.
Consider `CN(C)Cc1c(C(=O)N/N=C/c2ccc(-c3ccccc3)cc2)nnn1-c1nonc1N`, for which the “hERG current change (%, negative = inhibition) at 1uM” value is recorded as 4.79%.
On to `O=C(c1cccc(S(=O)(=O)N2CCCCCC2)c1)N1CCN(c2ccccc2F)CC1`, for which the “hERG current change (%, negative = inhibition) at 1uM” value was -6.53%.
As to `O=C(Nc1ccc2c(c1)OCO2)C1(S(=O)(=O)c2ccc(Cl)cc2)CC1`, the “hERG current change (%, negative = inhibition) at 1uM” value is -1.2%.
Turning to `CC1CCN(Cc2csc(N)n2)CC1`, the “hERG current change (%, negative = inhibition) at 1uM” value amounted to 3.89%.
In the case of `CCCCC(=O)Nc1cccc(NC(=S)NC(=O)Cc2ccccc2)c1`, the “hERG current change (%, negative = inhibition) at 1uM” value was 5.3%.
`C=CCn1c(CCC(O)COCCC)n[nH]c1=S` (stereo not shown): the “hERG current change (%, negative = inhibition) at 1uM” value worked out at 8.13%.
As to `Cc1cccc(C)c1NC(=O)CSC(=S)N1CCCC1`, the “hERG current change (%, negative = inhibition) at 1uM” value was 4.83%.
Regarding `CC(=O)N1CCCc2cc(S(=O)(=O)CCC(=O)N3CCN(c4ccccc4)CC3)ccc21`, the “hERG current change (%, negative = inhibition) at 1uM” value is 14.6%.
The result for `ON1C(c2ccccc2C(F)(F)F)N(O)[C@H]2CCCC[C@H]21` (stereo partly shown) reads 10.5%.
For `O=c1[nH]c(=O)n(Cc2ccccc2)c(O)c1C=NCCN1CCOCC1`, the “hERG current change (%, negative = inhibition) at 1uM” value is 27%.
As for `CC(C)NC(=S)NN=C1CCCCCCCCCCC1`, the “hERG current change (%, negative = inhibition) at 1uM” value is listed as 6.64%.
